Experimental data: PubChem BioAssay AID1347073 (National Center for Advancing Translational Sciences (NCATS), 2019)
In all, about 45,000 compounds went through this assay and about 200 (0.44%) were called active. Not shown: some 7% with an inconclusive outcome. Calls follow the shape of the dose curve; as a rule, active = well fitted activation curve with a large enough effect; inconclusive = small, poorly fitted or top-dose-only effect; inactive = no such curve, though single readings can be large or run the other way. The list shows a part of the results.

Assay: qHTS of TDP-43 Inhibitors: NCGC Sytravon Library Screen; also: 0% is about no effect; nearly all actives have a fitted effect of over 55% in size
Details: yeast TDP-43 toxicity rescue, BacTiter-Glo growth, 24 h; series mostly up to 46.1 µM; growth rescue (activation): at the top concentration
Method in brief: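 TDP-43-expressing yeast, pregrown in raffinose, seeded at OD600 0.02 in galactose medium with compound for 24 hr at 30 deg C. Growth read by BacTiter-Glo luminescence, so rescue of toxicity appears as activation.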

| Structure (SMILES) | growth rescue (activation) |
| --- | --- |
| Cc1ccccc1NC(=O)NCC1CCN(c2ccc(S(=O)(=O)N3CCOCC3)cc2)CC1 | inactive: -4.61% |
| CCC(C)Cn1c(C(C)C)nc2ccccc21 (centres undefined) | inactive: 11.5% |
| COc1ccc(-n2cc(-c3ccccc3)[n+]3c2CCCCC3)cc1 | inactive: 0.505% |
| COc1cc(/C=C/C(=O)O)cc(S(=O)(=O)NNC(=O)c2ccc3c(c2)OCO3)c1OC | inactive: 13.5% |
| COc1ccc(CN(C)C(C)C(=O)Nc2cccc3ccccc23)cc1 (centres undefined) | inactive: 8.13% |
| O=C(CCCSc1nc2ccccc2[nH]1)NCc1ccccc1Cl | inactive: 19.8% |
| O=S(=O)(O)c1cc(O)c2c(O)c(N=Nc3cc(Cl)ccc3O)c(S(=O)(=O)O)cc2c1 | inactive: -59.1% |
| Cc1cccc([C@@H]2C[C@H]3CN(Cc4cccc(Cl)c4)C(=O)[C@]34CCCN24)n1 | inactive: 1.64% |
| Nc1nc(CSc2nnnn2-c2ccc(Cl)cc2)nc(N2CCOCC2)n1 | inactive: -7.6% |
| O=C(O)c1cccc(NC(=O)c2ccc(N3C(=O)c4ccc(C(=O)Nc5cccc(C(=O)O)c5)cc4C3=O)cc2)c1 | inactive: 11.4% |
| CS(=O)(=O)c1ccc(C(=O)OCC(=O)NC(=O)C2COc3ccccc3O2)cc1[N+](=O)[O-] (centres undefined) | inactive: 21.7% |
| O=C(NCCc1c[nH]c2ccccc12)c1ccc2c(c1)OCO2 | inactive: 22.3% |
| CCN1C(=O)c2ccccc2S(=O)c2ccc(C(=O)N3CCOCC3)cc21 (centres undefined) | inactive: 13% |
| CCOc1cccc(N(C(=O)C2COc3ccccc3O2)C(C(=O)NC2CCCCC2)c2ccc(O)cc2)c1 (centres undefined) | inactive: -22.2% |
| Clc1nnc(NN=C2CCCC2)c2ccccc12 | inactive: 8.95% |
| Cc1cc2ccccn2c1C(=O)Nc1ccc(Cl)cc1 | inactive: 18% |
| CCOc1cc(/C=C/C(=O)O)ccc1OCCO | inactive: -7.21% |
| Cc1ccc(-c2nc3ccccc3c(=O)n2NC(=O)c2cccs2)cc1 | inactive: -8.31% |
| CCc1ccc(NC(=O)C2CCN(S(=O)(=O)c3cccs3)CC2)cc1 | inactive: -2.72% |
| CCOC(=O)Cc1nc(-c2ccccc2)n[nH]1 | inactive: -0.7% |
| CCOC(=O)c1nc(Nc2ccc(OC)cc2)c2ccccc2n1 | inactive: 8.27% |
| COc1ccc(NC2=C(NCCO)C(=O)c3ccccc3C2=O)cc1 | inactive: -11.6% |
| Cc1cc(C)n(-c2ccc(F)cc2CN2CCN(C3CCCC3)C(CCO)C2)n1 (centres undefined) | inactive: -1.01% |
| Cc1cccc2nc(CSc3ccccc3C(=O)O)cn12 | inactive: 4.23% |
| COc1ccc(S(=O)(=O)N(C)CC(=O)NCc2ccco2)cc1OC | inactive: -2.65% |
| COC(=O)c1cc(C(=O)OC)cc(N2C(=O)CC(Sc3nc(C)cc(C)n3)C2=O)c1 (centres undefined) | inactive: -12.1% |
| Cc1ccc(NC(=O)CCC(=O)NNC(=O)c2ccccc2[N+](=O)[O-])c(C)c1 | inactive: 0.93% |
| NS(=O)(=O)c1ccc(CCNC(=O)CN2CCN(c3cccc(Cl)c3)CC2)cc1 | inactive: 17.5% |
| COc1ccc(C2c3c(-c4ccccc4O)n[nH]c3C(=O)N2Cc2ccco2)cc1OC (centres undefined) | inactive: 31.3% |
